From PubChem BioAssay AID1508624 (National Center for Advancing Translational Sciences (NCATS), 2021)
The whole screen tested about 48,000 compounds, of which about 120 (0.25%) were called active. Roughly 4% stayed inconclusive and do not appear here. Calls come from the whole dose curve; as a rule, active = well fitted activation curve with a large enough effect; inconclusive = small, poorly fitted or top-dose-only effect, or another doubt; inactive = no such curve, though single readings can be large or run the other way. The list shows a part of the results.

Test: Primary qHTS for Identification of Small Molecule Activators of Huntingtin-Antisense Promoter Activity; note: nearly all actives have a fitted effect of over 55% in size
Settings: HEK293 HTT-AS promoter firefly luciferase reporter, 24 h; series mostly up to 57.5 µM; activity change, positive = activation: at the top concentration
Procedure, shortened: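 Firefly luciferase signal from promoter-reporter HEK293 cells was scaled between vehicle (0%) and zero RLU (-100%). Compounds were tested at final concentrations of up to 57.5 uM over 24 h at 37 degrees C. PTC124 at 50 uM final served as control inhibitor.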

Structure (SMILES) | activity change, positive = activation
COc1ccccc1NC(=O)Cn1c(=O)n(-c2ccccc2Cl)c(=O)c2sc3ccccc3c21 | inactive: -19.6%
COCCCn1c(SCc2ccccc2F)nc2c(sc3ccccc32)c1=O | inactive: -20.9%
COC(=O)c1cc2sccc2n1Cc1ccc(F)cc1 | inactive: -18.8%
CCCCC(=O)Nc1nnc(S(=O)(=O)N2CCCCCC2)s1 | inactive: -5.74%
CCN(c1cccc(C)c1)C(CNS(=O)(=O)c1ccccc1)c1ccccc1 (stereo not drawn) | inactive: -32.4%
CCOc1ccc(NC(=O)c2cccc(N3CCCS3(=O)=O)c2)cc1 | inactive: 13%
Cc1ccc(C)c(N2CCN(C(=O)CN3C(=O)COc4ccc(S(=O)(=O)N5CCOCC5)cc43)CC2)c1 | inactive: -12%
CCC(=O)N1c2ccccc2CC1C(=O)NCCCN1CCN(c2ccccc2)CC1 (stereo not drawn) | inactive: -4.16%
O=C(Nc1ccc(F)c(Cl)c1)C1CCCN(c2ncnc3onc(-c4ccc(F)cc4)c23)C1 (stereo not drawn) | inactive: -23.5%
COc1ccccc1Cc1nc2ccccc2nc1SCC(=O)NCc1ccc(F)cc1 | inactive: 2%
COc1ccccc1Nc1nc2c(S(=O)(=O)c3ccc(C(C)C)cc3)nnn2c2ccsc12 | inactive: -3.14%
Cc1cccc(N2CCN(c3ncnc4onc(-c5ccc(F)cc5)c34)CC2C)c1 (stereo not drawn) | inactive: -35.3%
Cc1ccc2c(=O)cc(C(=O)Nc3ccc(S(=O)(=O)N4CCCCC4)cc3)oc2c1C | inactive: -25.5%
Cc1cc(C)c2oc(-c3ccc(NC(=O)c4cc(Br)ccc4Cl)cc3)nc2c1 | inactive: -20.7%
Cc1ccc(NC(=O)CCc2nc3cccnc3n2-c2ccccc2)cc1 | inactive: -14.1%
Cc1coc2cc3oc(=O)c(CC(=O)NCCc4ccccc4F)c(C)c3cc12 | inactive: -0.146%
O=C(Cn1c(=O)n(Cc2ccc(C(=O)NCc3ccccc3Cl)cc2)c(=O)c2ccccc21)Nc1ccc(F)cc1 | inactive: -13.6%
Cc1c(-c2ccccc2)n(-c2ccc(Cl)cc2)c2nc3c(c(=O)n(C)c(=O)n3C)n12 | inactive: 1.57%
CSc1cccc(Nc2ncc3cc(-c4c(Cl)cccc4Cl)c(=O)n(C)c3n2)c1 | inactive: -0.0428%
Cc1ccc(CNc2ccc(-c3nc(-c4cccnc4)no3)cc2[N+](=O)[O-])cc1 | inactive: -7.34%
CCN(CC)S(=O)(=O)c1ccc2c(c1)N(CC(=O)Nc1ccc(F)cc1F)C(=O)C1CCCN21 (stereo not drawn) | inactive: -9.18%
COc1ccc(CNC(=O)CCCCCn2c(=O)[nH]c3ccccc3c2=O)cc1 | inactive: 6.37%
CCOC(=O)c1[nH]c2ccccc2c1NC(=O)c1ccc(OC)c(OC)c1 | inactive: -2.7%
COc1cc(NC(=O)Cn2c(C)cc(C)c(C#N)c2=O)cc(OC)c1 | inactive: -6.87%

Structure (SMILES) | activity change, positive = activation
CCn1cc(C(=O)NCCc2ccc(Cl)cc2)c(=O)c2cc(S(=O)(=O)N3CCOCC3)ccc21 | inactive: -13%
Oc1cccc(-c2nc3ncccn3c2Nc2cccc(C(F)(F)F)c2)c1 | inactive: -34.8%
NCCO | inactive: 13.6% [at 116 µM, percent change from vehicle, -100% = no light]
CC(=O)N1CCCc2cc(S(=O)(=O)N(C)CC(=O)Nc3ccc(C(C)C)cc3)ccc21 | inactive: -1.37%
OC1(c2ccc(Cl)cc2)CCNCC1 | inactive: 0.27%
CC(C)c1ccc(OCC(=O)Nc2ccc(S(=O)(=O)Nc3ncccn3)cc2)cc1 | inactive: 8.36%
Cn1cc(-c2cc3n(n2)CCC(=O)N3CCCC(=O)Nc2ccc(Cl)cc2)c2ccccc21 | inactive: -16.2%
CC(C)OC(=O)c1c(NC(=O)c2cccc(C(F)(F)F)c2)sc2c1CCCC2 | inactive: -6.74%
O=C1CC(c2ccccc2)Sc2ccccc2N1Cc1ccccc1F (stereo not drawn) | inactive: -19.7%
COc1ccc(NC(=O)Cn2ccn(-c3ccc(F)c(F)c3)c(=O)c2=O)cc1Cl | inactive: -4.64%
CN(C)CCCSc1ccccc1NC(=O)/C=C/c1ccccc1 | inactive: -7.14%
COc1cccc(CNC(=O)c2sc3nc[nH]c(=O)c3c2C)c1 | inactive: -12.5%
COc1ccc(CNC(=O)CCC2N=C3c4ccccc4N=C(SCC(=O)NCCc4ccc(OC)c(OC)c4)N3C2=O)cc1 (stereo not drawn) | inactive: -5.55%
Cc1cccc(CNC(=O)c2cnc3c(-c4cccc(C)c4)c(C)nn3c2C)c1 | inactive: -4.1%
CCCCC(=O)N1c2ccccc2C(C)(c2ccccc2)CC1(C)C (stereo not drawn) | inactive: -10.8%
COc1ccc(OC)c(CCNc2ncnc3onc(-c4ccc(Cl)cc4)c23)c1 | inactive: -23.3%
CCc1ccc(S(=O)(=O)NCCc2cn3ccsc3n2)cc1 | inactive: -15.7%
CC(=O)N1CCCc2cc(S(=O)(=O)N(C)CC(=O)Nc3cccc(Cl)c3C)ccc21 | inactive: -23.5%
Cn1c(=O)c2cc(S(=O)(=O)NC(Cc3ccccc3)C(=O)Nc3ccc(F)cc3)ccc2n(C)c1=O (stereo not drawn) | inactive: -6.67%
CCOc1cc2ncc(C#N)c(Nc3ccc(F)c(Cl)c3)c2cc1NC(=O)C=CCN(C)C | inactive: -29.7%
O=C(c1ccccc1Cl)n1nc(-c2ccco2)nc1NCc1cccs1 | inactive: 29.7%
Cc1nc2cnc3ccc(C#Cc4cccnc4)cc3c2n1-c1ccc(C(C)(C)C#N)cc1 | inactive: -43.8%
CCN(CC)c1ccc(NC(=O)COCc2cc(-c3ccc4c(c3)OCO4)on2)c(C)c1 | inactive: -8.52%
Cc1ccccc1Cn1c2ccccc2c2cnn(CC(=O)NCc3cccc(Cl)c3)c(=O)c21 | inactive: -27%

Structure (SMILES) | activity change, positive = activation
CCOC(=O)c1ccc(CN(Cc2ccc(F)cc2)S(=O)(=O)c2ccc(F)c(C(=O)Nc3cc(Cl)ccc3OC)c2)cc1 | inactive: -16%
Cc1ccc(N2CCN(C(=O)c3c(C)oc4ncn(C)c(=O)c34)CC2)c(C)c1 | inactive: -4.24%
Cc1ccc(NC(=O)CSc2nc3c(oc4ccccc43)c(=O)n2Cc2ccco2)cc1F | inactive: -3.54%
Cc1nc(-n2nc(C)c(Cc3ccc(Cl)cc3)c2C)sc1C(=O)N1CCC(C)CC1 | inactive: -13.3%
COc1cccc(C(=O)Nc2nc(-c3nnn(-c4ccccc4C(F)(F)F)c3C)ns2)c1 | inactive: -25.8%
COc1cccc(-c2nc(Cn3c(=O)cc(C)c4c(C)nn(-c5ccccc5)c43)c(C)o2)c1OC | inactive: -5.5%
COc1ccc(-c2nc3ccccc3n2Cc2ccccc2)cc1 | inactive: 0.535%
CCCCCOc1ccc(NC(=O)Cn2c(-c3nonc3N)nc3ccccc32)cc1 | inactive: -20.1%
Cc1c(Cl)ccc2sc(N3CCN(C(=O)CCS(=O)(=O)c4ccc(F)cc4)CC3)nc12 | inactive: -48.6%
CC1=C(C(=O)Nc2ccccc2)C(c2ccccn2)n2nc(SCc3ccccc3)nc2N1 (stereo not drawn) | inactive: -21.2%
Cc1ccc(-n2nc(C)c3c(C(=O)Nc4ccccc4C(F)(F)F)cc(C)nc32)cc1 | inactive: -21.3%
Cc1ccc2c(c1)C(c1ccccc1)N(C(=O)COc1ccc(Cl)cc1Cl)CC(=O)N2 (stereo not drawn) | inactive: -25.1%
CCCCN1C(=O)C(O)(CC(=O)c2ccc(CC)cc2)c2cc(Br)ccc21 (stereo not drawn) | inactive: -26.4%
CCCN(C(=O)c1cc2c(=O)oc3ccc(C)cc3c2s1)c1ccc(OCC)cc1 | inactive: -8.98%
COc1cccc(CNC(=O)Cn2nc(C)n3c(cc4cc(C)ccc43)c2=O)c1OC | inactive: -0.209%
CCSc1nc(-c2cccc(Cl)c2)nc2c1Cc1c(CO)cnc(C)c1O2 | inactive: -7.8%
CN[C@H]1[C@@H](O[C@@H]2[C@H](O[C@@H]3[C@@H](O)[C@@H](O)[C@@H](N=C(N)N)[C@@H](O)[C@@H]3N=C(N)N)O[C@H](C)[C@@]2(O)C=O)O[C@@H](CO)[C@@H](O)[C@H]1O | inactive: 0.657% [at 19.1 µM, percent change from vehicle, -100% = no light]
COc1ccccc1CNC(=O)C(=O)NCC(c1ccco1)S(=O)(=O)c1ccc(F)cc1 (stereo not drawn) | inactive: -13.3%
COc1ccc(C)c2sc(NC(=O)c3ccc(S(=O)(=O)N4CCOCC4)cc3)nc12 | inactive: -7.34%
COc1cccc(N2CCN(C(=O)c3cnc4c(-c5ccc(F)cc5)c(C)nn4c3C)CC2)c1 | inactive: -14.6%
COc1ccc(C(=O)Oc2c(Sc3ccccc3)c(C)nn2-c2ccccc2)c(OC)c1 | inactive: -76.6%
COc1ccc(C2Nc3ccccc3-c3cc(C)nn32)c(OC)c1 (stereo not drawn) | inactive: 0.956%
Cc1cccc(C)c1OCCn1c(CCNC(=O)C2CCCCC2)nc2ccccc21 | inactive: -27.6%
COC(=O)c1ccccc1NS(=O)(=O)c1cc2c3c(c1)CC(=O)N3CCC2 | inactive: -7.05%

Structure (SMILES) | activity change, positive = activation
CCN(CC)S(=O)(=O)c1ccc2c(c1)N(CC(=O)Nc1ccc(Cl)cc1)C(=O)C1CCCN21 (stereo not drawn) | inactive: -14.1%
CC1=C(C(=O)Nc2cc3cn[nH]c3cc2F)C(c2ccc(Cl)cc2F)N=C(c2ccnc(Cl)c2)N1 (stereo not drawn) | inactive: -23.4%
CC(C)(C)c1ccc(C(=O)NCC(c2ccco2)S(=O)(=O)c2ccccc2)cc1 (stereo not drawn) | inactive: -22%
O=C(CSc1nc2c([nH]c3ccccc32)c(=O)n1-c1ccccc1)Nc1cccc(C(F)(F)F)c1 | inactive: -34.1%
Cc1ccc(N(C)C(=O)Cn2ncc3c([nH]c4ccccc43)c2=O)cc1C | inactive: -16.5%
O=C(NC1CCCCC1)c1ccc(CSc2nc3ccncc3n2Cc2cccc(F)c2)cc1 | inactive: -18.6%
CCc1ccc(CNC(=O)c2ccc3c(c2)c(C)c(C)n3Cc2ccccc2)cc1 | inactive: -35.1%
CCOC(=O)N1CCc2c(sc(NCc3cc(OC)ccc3OC)c2C(=O)Nc2cc(OC)ccc2OC)C1 | inactive: -34.4%
COC(=O)c1cc(-c2ccc(Cl)cc2)c2c(=O)[nH]c(=O)n(C)c2n1 | inactive: -7.13%
CCOCCCNC(=O)C1CCN(c2nc3ccc(C)cc3[nH]2)CC1 | inactive: 1.01%
COc1ccc(N2CCN(C(=O)Cn3cnc4sc(C)c(S(=O)(=O)N5CCCCC5)c4c3=O)CC2)cc1 | inactive: 13.5%
Cc1ccc(NC(=O)CCn2cccn2)c(C)c1 | inactive: 5.42%
Cc1ccc(S(=O)(=O)NC(=O)NC2CCCCCCC2)cc1 | inactive: -3.41%
CCc1nn(CC(=O)N2CCN(c3cccc(C)c3)C(C)C2)c(=O)c2cc3sccc3n12 (stereo not drawn) | inactive: -13%
CCOCCCNC(=O)C(c1ccc(C)cc1)N(Cc1ccc2c(c1)OCO2)C(=O)c1ccccc1O (stereo not drawn) | inactive: 1.34%
O=C(CSc1nnc2scc(-c3ccc(Cl)cc3)n12)Nc1ccc(F)cc1 | inactive: -5.14%
COc1ccccc1C(=O)NC1(C(F)(F)F)NC(=O)N(CCc2ccccc2)C1=O (stereo not drawn) | inactive: -15.9%
COC(=O)[C@H]1[C@H]2C[C@@H]3c4[nH]c5cc(OC)ccc5c4CCN3C[C@H]2C[C@@H](OC(=O)c2cc(OC)c(OC)c(OC)c2)[C@@H]1OC | inactive: -17.3%
Cc1ccc(Nc2c(-c3cccnc3)nc3ccc(C)cn23)cc1 | inactive: -4.56%
COc1cccc(C2=CC(c3ccccc3F)n3ncc(C(=O)Nc4ccc(F)cc4)c3N2)c1 (stereo not drawn) | inactive: -31.4%
COc1cccc(NC(=O)CSc2cc(C)c3ccccc3n2)c1 | inactive: -14.3%
